# Assay results published in US20240294593A1 (Genentech, published 2024).
# B1: H1.19_L1.1 (XENP30275) (Fc fusion)
# chain 1: ITCPPPMSVEHADIWVKSYSLYSRERYICNSGFKRKAGTSSLTECVLNKATNVAHWTTPSLKCIRGGGGSGGGGSGGGGSGGGGSGGGGS[not shown - about 120 residues]EPKSSDKTHTCPPCPAPPVAGPSVFLFPPKPKDTLMISRTPEVTCVVVDVKHEDPEVKFNWYVDGVEVHNAKTKPREEEYNSTYRVVSVLTVLHQDWLNGKEYKCKVSNKALPAPIEKTISKAKGQPREPQVYTLPPSREEMTKNQVSLTCDVSGFYPSDIAVEWESDGQPENNYKTTPPVLDSDGSFFLYSKLTVDKSRWEQGDVFSCSVMHEALHNHYTQKSLSLSPGK
# chain 2: EVQLVESGGGLVQPGGSLRLSCAASGFTFSSLGMHWVRQAPGKGLEWVSYISSGSSIIYYADSVKGRFTISRDNAKNSLYLQMNSLRAEDTAVYYCARGGRLVWSPDYWGQGTLVTVSSASTKGPSVFPLAPSSKSTSGGTAALGCLVKDYFPEPVTVSWNSGALTSGVHTFPAVLQSSGLYSLSSVVTVPSSSLGTQTYICNVNHKPSNTKVDKKVEPKSCDKTHTCPPCPAPPVAGPSVFLFPPKPKDTLMISRTPEVTCVVVDVKHEDPEVKFNWYVDGVEVHNAKTKPREEQYNSTYRVVSVLTVLHQDWLNGKEYKCKVSNKALPAPIEKTISKAKGQPREPQVYTLPPSREQMTKNQVKLTCLVKGFYPSDIAVEWESNGQPENNYKTTPPVLDSDGSFFLYSKLTVDKSRWQQGNVFSCSVMHEALHNHYTQKSLSLSPGK
# chain 3: DIVMTQSPDSLAVSLGERATINCKSSQSLLHSGNQKNYLTWYQQKPGQPPKLLIYWASTRESGVPDRFTGSGSGTDFTLTISSLQAEDVAVYYCQNDYSYPFTFGSGTKLEIKRTVAAPSVFIFPPSDEQLKSGTASVVCLLNNFYPREAKVQWKVDNALQSGNSQESVTEQDSKDSTYSLSSTLTLSKADYEKHKVYACEVTHQGLSSPVTKSFNRGEC
# notes: also called mAb C H1.19_L1.1 x IL-15(D30N/N65D)
# B2: H1.132_L1.135 (XENP30486) (Fc fusion)
# chain 1: ITCPPPMSVEHADIWVKSYSLYSRERYICNSGFKRKAGTSSLTECVLNKATNVAHWTTPSLKCIRGGGGSGGGGSGGGGSGGGGSGGGGS[not shown - about 120 residues]EPKSSDKTHTCPPCPAPPVAGPSVFLFPPKPKDTLMISRTPEVTCVVVDVKHEDPEVKFNWYVDGVEVHNAKTKPREEEYNSTYRVVSVLTVLHQDWLNGKEYKCKVSNKALPAPIEKTISKAKGQPREPQVYTLPPSREEMTKNQVSLTCDVSGFYPSDIAVEWESDGQPENNYKTTPPVLDSDGSFFLYSKLTVDKSRWEQGDVFSCSVMHEALHNHYTQKSLSLSPGK
# chain 2: EVQLVESGGGLVQPGGSLRLSCAASGFTFSSFGMHWVRQAPGKGLEWVSYISSGSSIIYYADSVKGRFTISRDNAKNSLYLQMNSLRAEDTAVYYCARGGWLVWSPDYWGQGTLVTVSSASTKGPSVFPLAPSSKSTSGGTAALGCLVKDYFPEPVTVSWNSGALTSGVHTFPAVLQSSGLYSLSSVVTVPSSSLGTQTYICNVNHKPSNTKVDKKVEPKSCDKTHTCPPCPAPPVAGPSVFLFPPKPKDTLMISRTPEVTCVVVDVKHEDPEVKFNWYVDGVEVHNAKTKPREEQYNSTYRVVSVLTVLHQDWLNGKEYKCKVSNKALPAPIEKTISKAKGQPREPQVYTLPPSREQMTKNQVKLTCLVKGFYPSDIAVEWESNGQPENNYKTTPPVLDSDGSFFLYSKLTVDKSRWQQGNVFSCSVMHEALHNHYTQKSLSLSPGK
# chain 3: DIVMTQSPDSLAVSLGERATINCKSSQSLLHSGNQYNYLTWYQQKPGQPPKLLIYWASTRESGVPDRFTGSGSGTDFTLTISSLQAEDVAVYYCQNDYSYPFTFGSGTKLEIKRTVAAPSVFIFPPSDEQLKSGTASVVCLLNNFYPREAKVQWKVDNALQSGNSQESVTEQDSKDSTYSLSSTLTLSKADYEKHKVYACEVTHQGLSSPVTKSFNRGEC
# notes: also called mAb C H1.132_L1.135 x IL-15(N4D/N65D)
# B3: H1.169_L1.1 (XENP30273) (Fc fusion)
# chain 1: ITCPPPMSVEHADIWVKSYSLYSRERYICNSGFKRKAGTSSLTECVLNKATNVAHWTTPSLKCIRGGGGSGGGGSGGGGSGGGGSGGGGS[not shown - about 120 residues]EPKSSDKTHTCPPCPAPPVAGPSVFLFPPKPKDTLMISRTPEVTCVVVDVKHEDPEVKFNWYVDGVEVHNAKTKPREEEYNSTYRVVSVLTVLHQDWLNGKEYKCKVSNKALPAPIEKTISKAKGQPREPQVYTLPPSREEMTKNQVSLTCDVSGFYPSDIAVEWESDGQPENNYKTTPPVLDSDGSFFLYSKLTVDKSRWEQGDVFSCSVMHEALHNHYTQKSLSLSPGK
# chain 2: EVQLVESGGGLVQPGGSLRLSCAASGFTFSSLGMHWVRQAPGKGLEWVSYISGGSSIIYYADSVKGRFTISRDNAKNSLYLQMNSLRAEDTAVYYCARGGRLVWSPDYWGQGTLVTVSSASTKGPSVFPLAPSSKSTSGGTAALGCLVKDYFPEPVTVSWNSGALTSGVHTFPAVLQSSGLYSLSSVVTVPSSSLGTQTYICNVNHKPSNTKVDKKVEPKSCDKTHTCPPCPAPPVAGPSVFLFPPKPKDTLMISRTPEVTCVVVDVKHEDPEVKFNWYVDGVEVHNAKTKPREEQYNSTYRVVSVLTVLHQDWLNGKEYKCKVSNKALPAPIEKTISKAKGQPREPQVYTLPPSREQMTKNQVKLTCLVKGFYPSDIAVEWESNGQPENNYKTTPPVLDSDGSFFLYSKLTVDKSRWQQGNVFSCSVMHEALHNHYTQKSLSLSPGK
# chain 3: DIVMTQSPDSLAVSLGERATINCKSSQSLLHSGNQKNYLTWYQQKPGQPPKLLIYWASTRESGVPDRFTGSGSGTDFTLTISSLQAEDVAVYYCQNDYSYPFTFGSGTKLEIKRTVAAPSVFIFPPSDEQLKSGTASVVCLLNNFYPREAKVQWKVDNALQSGNSQESVTEQDSKDSTYSLSSTLTLSKADYEKHKVYACEVTHQGLSSPVTKSFNRGEC
# notes: also called mAb C H1.169_L1.1 x IL-15(N4D/N65D)
# B4: H1.175_L1.1 (XENP30274) (Fc fusion)
# chain 1: ITCPPPMSVEHADIWVKSYSLYSRERYICNSGFKRKAGTSSLTECVLNKATNVAHWTTPSLKCIRGGGGSGGGGSGGGGSGGGGSGGGGS[not shown - about 120 residues]EPKSSDKTHTCPPCPAPPVAGPSVFLFPPKPKDTLMISRTPEVTCVVVDVKHEDPEVKFNWYVDGVEVHNAKTKPREEEYNSTYRVVSVLTVLHQDWLNGKEYKCKVSNKALPAPIEKTISKAKGQPREPQVYTLPPSREEMTKNQVSLTCDVSGFYPSDIAVEWESDGQPENNYKTTPPVLDSDGSFFLYSKLTVDKSRWEQGDVFSCSVMHEALHNHYTQKSLSLSPGK
# chain 2: EVQLVESGGGLVQPGGSLRLSCAASGFTFSSLGMHWVRQAPGKGLEWVSYISGGSSIIYYADSVKGRFTISRDNAKNSLYLQMNSLRAEDTAVYYCARGGWLVWSPDYWGQGTLVTVSSASTKGPSVFPLAPSSKSTSGGTAALGCLVKDYFPEPVTVSWNSGALTSGVHTFPAVLQSSGLYSLSSVVTVPSSSLGTQTYICNVNHKPSNTKVDKKVEPKSCDKTHTCPPCPAPPVAGPSVFLFPPKPKDTLMISRTPEVTCVVVDVKHEDPEVKFNWYVDGVEVHNAKTKPREEQYNSTYRVVSVLTVLHQDWLNGKEYKCKVSNKALPAPIEKTISKAKGQPREPQVYTLPPSREQMTKNQVKLTCLVKGFYPSDIAVEWESNGQPENNYKTTPPVLDSDGSFFLYSKLTVDKSRWQQGNVFSCSVMHEALHNHYTQKSLSLSPGK
# chain 3: DIVMTQSPDSLAVSLGERATINCKSSQSLLHSGNQKNYLTWYQQKPGQPPKLLIYWASTRESGVPDRFTGSGSGTDFTLTISSLQAEDVAVYYCQNDYSYPFTFGSGTKLEIKRTVAAPSVFIFPPSDEQLKSGTASVVCLLNNFYPREAKVQWKVDNALQSGNSQESVTEQDSKDSTYSLSSTLTLSKADYEKHKVYACEVTHQGLSSPVTKSFNRGEC
# notes: also called mAb C H1.175_L1.1 x IL-15(N4D/N65D)
# B5: H1.175_L1.135 (XENP30488) (Fc fusion)
# chain 1: ITCPPPMSVEHADIWVKSYSLYSRERYICNSGFKRKAGTSSLTECVLNKATNVAHWTTPSLKCIRGGGGSGGGGSGGGGSGGGGSGGGGS[not shown - about 120 residues]EPKSSDKTHTCPPCPAPPVAGPSVFLFPPKPKDTLMISRTPEVTCVVVDVKHEDPEVKFNWYVDGVEVHNAKTKPREEEYNSTYRVVSVLTVLHQDWLNGKEYKCKVSNKALPAPIEKTISKAKGQPREPQVYTLPPSREEMTKNQVSLTCDVSGFYPSDIAVEWESDGQPENNYKTTPPVLDSDGSFFLYSKLTVDKSRWEQGDVFSCSVMHEALHNHYTQKSLSLSPGK
# chain 2: EVQLVESGGGLVQPGGSLRLSCAASGFTFSSLGMHWVRQAPGKGLEWVSYISGGSSIIYYADSVKGRFTISRDNAKNSLYLQMNSLRAEDTAVYYCARGGWLVWSPDYWGQGTLVTVSSASTKGPSVFPLAPSSKSTSGGTAALGCLVKDYFPEPVTVSWNSGALTSGVHTFPAVLQSSGLYSLSSVVTVPSSSLGTQTYICNVNHKPSNTKVDKKVEPKSCDKTHTCPPCPAPPVAGPSVFLFPPKPKDTLMISRTPEVTCVVVDVKHEDPEVKFNWYVDGVEVHNAKTKPREEQYNSTYRVVSVLTVLHQDWLNGKEYKCKVSNKALPAPIEKTISKAKGQPREPQVYTLPPSREQMTKNQVKLTCLVKGFYPSDIAVEWESNGQPENNYKTTPPVLDSDGSFFLYSKLTVDKSRWQQGNVFSCSVMHEALHNHYTQKSLSLSPGK
# chain 3: DIVMTQSPDSLAVSLGERATINCKSSQSLLHSGNQYNYLTWYQQKPGQPPKLLIYWASTRESGVPDRFTGSGSGTDFTLTISSLQAEDVAVYYCQNDYSYPFTFGSGTKLEIKRTVAAPSVFIFPPSDEQLKSGTASVVCLLNNFYPREAKVQWKVDNALQSGNSQESVTEQDSKDSTYSLSSTLTLSKADYEKHKVYACEVTHQGLSSPVTKSFNRGEC
# notes: also called mAb C H1.175_L1.135 x IL-15(N4D/N65D)
# B6: H1_L1.135 (XENP30444) (Fc fusion)
# chain 1: ITCPPPMSVEHADIWVKSYSLYSRERYICNSGFKRKAGTSSLTECVLNKATNVAHWTTPSLKCIRGGGGSGGGGSGGGGSGGGGSGGGGS[not shown - about 120 residues]EPKSSDKTHTCPPCPAPPVAGPSVFLFPPKPKDTLMISRTPEVTCVVVDVKHEDPEVKFNWYVDGVEVHNAKTKPREEEYNSTYRVVSVLTVLHQDWLNGKEYKCKVSNKALPAPIEKTISKAKGQPREPQVYTLPPSREEMTKNQVSLTCDVSGFYPSDIAVEWESDGQPENNYKTTPPVLDSDGSFFLYSKLTVDKSRWEQGDVFSCSVMHEALHNHYTQKSLSLSPGK
# chain 2: EVQLVESGGGLVQPGGSLRLSCAASGFTFSSFGMHWVRQAPGKGLEWVSYISSGSSIIYYADSVKGRFTISRDNAKNSLYLQMNSLRAEDTAVYYCARGGRLVWSPDYWGQGTLVTVSSASTKGPSVFPLAPSSKSTSGGTAALGCLVKDYFPEPVTVSWNSGALTSGVHTFPAVLQSSGLYSLSSVVTVPSSSLGTQTYICNVNHKPSNTKVDKKVEPKSCDKTHTCPPCPAPPVAGPSVFLFPPKPKDTLMISRTPEVTCVVVDVKHEDPEVKFNWYVDGVEVHNAKTKPREEQYNSTYRVVSVLTVLHQDWLNGKEYKCKVSNKALPAPIEKTISKAKGQPREPQVYTLPPSREQMTKNQVKLTCLVKGFYPSDIAVEWESNGQPENNYKTTPPVLDSDGSFFLYSKLTVDKSRWQQGNVFSCSVMHEALHNHYTQKSLSLSPGK
# chain 3: DIVMTQSPDSLAVSLGERATINCKSSQSLLHSGNQYNYLTWYQQKPGQPPKLLIYWASTRESGVPDRFTGSGSGTDFTLTISSLQAEDVAVYYCQNDYSYPFTFGSGTKLEIKRTVAAPSVFIFPPSDEQLKSGTASVVCLLNNFYPREAKVQWKVDNALQSGNSQESVTEQDSKDSTYSLSSTLTLSKADYEKHKVYACEVTHQGLSSPVTKSFNRGEC
# notes: also called mAb C H1_L1.135 x IL-15(D30N/N65D)
# Target: T1, human PD-1-His (human, UniProt Q15116 partial chain, limits assumed)
# T1 construct: Antigen of the Octet assays; not shown: His tag
# Assay: Octet
# T1 sequence (Q15116 25-167 limits assumed): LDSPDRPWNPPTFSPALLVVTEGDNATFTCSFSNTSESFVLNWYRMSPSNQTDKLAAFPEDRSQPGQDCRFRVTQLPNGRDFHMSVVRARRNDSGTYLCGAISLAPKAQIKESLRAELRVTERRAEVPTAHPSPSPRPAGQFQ
Binder,Kd,koff,kon
B1,4.35 nM,0.000272 s⁻¹,62600 M⁻¹ s⁻¹
B2,0.828 nM,0.000112 s⁻¹,136000 M⁻¹ s⁻¹
B3,3.1 nM,0.000193 s⁻¹,62000 M⁻¹ s⁻¹
B4,1.24 nM,0.000118 s⁻¹,95000 M⁻¹ s⁻¹
B5,0.697 nM,8.33e-05 s⁻¹,120000 M⁻¹ s⁻¹
B6,2.84 nM,0.0002 s⁻¹,70200 M⁻¹ s⁻¹
